From the antibiotic and cytotoxicity screens of Wong et al. (2023)
Some of the results follow.

Assays:
[1] = test system: HSkMC (human skeletal muscle cells); experiment: cytotoxicity call (relative viability < 0.9); details: 10 µM
[2] = test system: HepG2; experiment: cytotoxicity call (relative viability < 0.9); details: 10 µM
[3] = test system: S. aureus RN4220; experiment: growth inhibition call (relative growth <= 0.2); details: 50 µM

C[C@@H]1CCCCO[C@H](CN(C)C(=O)c2ccccc2)[C@H](C)CN([C@@H](C)CO)C(=O)c2cc(NS(=O)(=O)c3ccc(F)cc3)ccc2O1
inactive: cytotoxicity call [1] | cytotoxicity call [2] | growth inhibition call [3]

Cc1ccc(S(=O)(=O)Nc2ccc3c(c2)C(=O)N([C@@H](C)CO)C[C@H](C)[C@H](CN(C)S(=O)(=O)c2ccc(C)cc2)OCCCC[C@@H](C)O3)cc1
inactive: cytotoxicity call [1] | cytotoxicity call [2] | growth inhibition call [3]

Cc1cc(S(=O)(=O)NCC(=O)O)ccc1F
inactive: cytotoxicity call [1] | cytotoxicity call [2] | growth inhibition call [3]

C[C@H]1COC(=O)[C@@H](CC(=O)OC(C)(C)C)CC=CC[C@@H](CC(=O)N[C@@H](CO)Cc2ccccc2)C(=O)N1
inactive: cytotoxicity call [1] | cytotoxicity call [2] | growth inhibition call [3]

C[C@H]1CN([C@@H](C)CO)C(=O)Cc2cc(NC(=O)Nc3ccc4c(c3)OCO4)ccc2O[C@@H]1CN(C)C(=O)Nc1cccc2ccccc12
inactive: cytotoxicity call [1] | cytotoxicity call [2] | growth inhibition call [3]

CC(O)CC(C)(C)O (stereo not given)
inactive: cytotoxicity call [1] | cytotoxicity call [2] | growth inhibition call [3]

Cc1ccccc1/C=C(\CCC(=O)O)c1nc2ccccc2s1
inactive: cytotoxicity call [1] | cytotoxicity call [2] | growth inhibition call [3]

C[C@@H]1CCCCO[C@@H](CN(C)S(=O)(=O)c2cccs2)[C@@H](C)CN([C@@H](C)CO)C(=O)c2cc(NC(=O)Nc3cccc4ccccc34)ccc2O1
inactive: cytotoxicity call [1] | cytotoxicity call [2] | growth inhibition call [3]

C[C@H](N[P@@](=O)(OC[C@H]1O[C@@H](n2ccc(N)nc2=O)C(F)(F)[C@@H]1O)Oc1ccccc1)C(=O)OCc1ccccc1
inactive: cytotoxicity call [1] | cytotoxicity call [2] | growth inhibition call [3]

O=C(C[C@@H]1CC[C@@H]2[C@H](COC[C@H](O)CN2S(=O)(=O)c2ccccc2Cl)O1)NCc1ccccc1Cl
inactive: cytotoxicity call [1] | cytotoxicity call [2] | growth inhibition call [3]
